# Measured values: the supplement of paper PMC4967469
# The IC50 comes from the fitted curve, where viability falls to half of the control; a fit beyond the top or the lowest dose is shown as a bound at that dose. The AUC spans the tested range (256-fold, ending at the top dose) of the same fit; it is 1 without any effect and falls as sensitivity rises. For part of these data: A top dose marked as inferred was calculated from the reported fits. For part of these data: An entry number marks a drug with two screens in the source, which often give different values.
# Columns and labels:
# Test in all cases: Viability of human cancer cell lines after 72 h of drug (GDSC screen)
# Tamoxifen = compound: CC/C(=C(\c1ccccc1)c1ccc(OCCN(C)C)cc1)c1ccccc1 [Tamoxifen]; details: top dose 5 µM
# Procedure: (§1)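 Human cancer cell lines in 384-well plates, medium with 10% serum, drug for 72 h over a 256-fold dose range (nine 2-fold or five 4-fold steps up to the top dose). Adherent lines were fixed and stained with the nucleic acid dye Syto60, suspension lines read with resazurin; signal relative to control wells, capped at 0 and 100%. One two-parameter sigmoid per drug and line, fitted in a mixed model over all curves with the slope shared within a line.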
# VNLG/124 = compound: CCCC(=O)OCc1ccc(OC(=O)/C=C(C)/C=C/C=C(C)/C=C/C2=C(C)CCCC2(C)C)cc1 [VNLG/124]; details: top dose 5.12 µM; top dose inferred
# Procedure: as §1
# Elesclomol = compound: CN(NC(=O)CC(=O)NN(C)C(=S)c1ccccc1)C(=S)c1ccccc1 [Elesclomol]; details: top dose 0.2 µM; top dose inferred
# Procedure: as §1
# Bleomycin = compound: Cc1c(N)nc([C@H](CC(N)=O)NC[C@H](N)C(N)=O)nc1C(=O)N[C@H](C(=O)N[C@H](C)[C@@H](O)[C@H](C)C(=O)N[C@H](C(=O)NCCc1nc(-c2nc(C(=O)NCCC[S+](C)C)cs2)cs1)[C@@H](C)O)[C@@H](OC1OC(CO)C(O)C(O)C1OC1OC(CO)C(O)C(OC(N)=O)C1O)c1cnc[nH]1 [Bleomycin]
# Procedure: as §1
# Masitinib = compound: Cc1ccc(NC(=O)c2ccc(CN3CCN(C)CC3)cc2)cc1Nc1nc(-c2cccnc2)cs1 [Masitinib]; details: top dose 20 µM
# Procedure: as §1
# LAQ824 = compound: O=C(/C=C/c1ccc(CN(CCO)CCc2c[nH]c3ccccc23)cc1)NO [LAQ824]; details: top dose 1.024 µM; top dose inferred
# Procedure: as §1
# OSI-930 = compound: O=C(Nc1ccc(OC(F)(F)F)cc1)c1sccc1NCc1ccnc2ccccc12 [OSI-930]; details: top dose 10.24 µM
# Procedure: as §1
# BX-912 = compound: O=C(Nc1cccc(Nc2ncc(Br)c(NCCc3cnc[nH]3)n2)c1)N1CCCC1 [BX-912]; details: top dose 10.24 µM; top dose inferred
# Procedure: as §1
# NSC-87877 = compound: O=S(=O)(O)c1ccc2cc(N=Nc3cc(S(=O)(=O)O)c4cccnc4c3O)ccc2c1 [NSC-87877]; details: top dose 16 µM; top dose inferred
# Procedure: as §1
# [1] = top dose 50 µM, screen: GDSC drug entry 1378, top dose inferred
# [2] = top dose 64 µM, screen: GDSC drug entry 190
Cell Line,AUC (Tamoxifen),IC50 (Tamoxifen) [µM],AUC (VNLG/124),IC50 (VNLG/124) [µM],AUC (Elesclomol),IC50 (Elesclomol) [µM],AUC (Bleomycin; [1]),IC50 (Bleomycin; [1]) [µM],AUC (Bleomycin; [2]),IC50 (Bleomycin; [2]) [µM],AUC (Masitinib),IC50 (Masitinib) [µM],AUC (LAQ824),IC50 (LAQ824) [µM],AUC (OSI-930),IC50 (OSI-930) [µM],AUC (BX-912),IC50 (BX-912) [µM],AUC (NSC-87877),IC50 (NSC-87877) [µM]
"SBC-5 (small cell lung carcinoma, adherent)",0.993,> 5,0.992,> 5.12,0.586,0.0205,0.701,10.1,0.319,1.4,0.986,> 20,0.377,0.0315,0.988,> 10.2,0.989,> 10.2,0.99,> 16
"SCC-9 (head and neck, adherent)",0.977,> 5,0.953,> 5.12,0.792,,0.774,25.2,0.939,> 64,0.869,> 20,0.791,0.606,0.902,> 10.2,0.909,> 10.2,0.978,> 16
"SCC-25 (head and neck, adherent)",0.937,> 5,0.905,> 5.12,0.603,0.025,0.935,> 50,0.251,0.69,0.882,> 20,0.491,0.0603,0.962,> 10.2,0.839,8.33,0.943,> 16
"SCH (stomach, adherent)",0.983,> 5,0.978,> 5.12,0.875,> 0.2,0.531,3.83,0.957,> 64,0.971,> 20,0.789,0.49,0.978,> 10.2,0.988,> 10.2,0.988,> 16
"SISO (cervix, adherent)",0.985,> 5,0.927,> 5.12,0.468,0.0103,0.255,0.643,0.206,0.57,0.97,> 20,0.518,0.0714,0.985,> 10.2,0.95,> 10.2,0.988,> 16
"SK-ES-1 (Ewing sarcoma, semi-adherent)",0.979,> 5,0.902,> 5.12,0.605,0.0247,0.603,6.13,0.252,0.733,0.933,> 20,0.413,0.0364,0.93,> 10.2,0.632,1.52,0.984,> 16
"SK-HEP-1 (liver, adherent)",0.988,> 5,0.972,> 5.12,0.935,> 0.2,0.298,0.881,0.249,0.805,0.979,> 20,0.445,0.0459,0.984,> 10.2,0.946,> 10.2,0.985,> 16
"SK-MEL-24 (melanoma, adherent)",0.972,> 5,0.982,> 5.12,0.546,0.0172,0.221,0.391,0.715,18.7,0.982,> 20,0.667,0.207,0.979,> 10.2,0.85,> 10.2,0.802,9.9
"SK-N-FI (neuroblastoma, adherent)",0.972,> 5,0.988,> 5.12,0.75,0.065,0.9,> 50,0.965,> 64,0.929,> 20,0.709,0.247,0.988,> 10.2,0.909,> 10.2,0.986,> 16
"SK-UT-1 (soft tissue, adherent)",0.984,> 5,0.988,> 5.12,0.533,0.0152,0.072,< 0.195,0.081,< 0.25,0.956,> 20,0.541,0.082,0.973,> 10.2,0.931,> 10.2,0.967,> 16
"SKG-IIIa (cervix, adherent)",0.977,> 5,0.979,> 5.12,0.66,0.0407,0.621,7.52,0.85,> 64,0.976,> 20,0.475,0.0534,0.968,> 10.2,0.976,> 10.2,0.981,> 16
"SKN-3 (head and neck, adherent)",0.961,> 5,0.957,> 5.12,0.794,0.112,0.213,0.375,0.753,24.9,0.921,> 20,0.542,0.0853,0.981,> 10.2,0.971,> 10.2,0.983,> 16
"SNU-182 (liver, adherent)",0.972,> 5,0.986,> 5.12,0.503,0.0127,0.869,49.6,0.655,11,0.943,> 20,0.555,0.0913,0.982,> 10.2,0.606,1.27,0.979,> 16
"SNU-423 (liver, adherent)",0.948,> 5,0.962,> 5.12,0.538,0.0162,0.699,12.6,0.327,1.2,0.869,> 20,0.327,0.0193,0.968,> 10.2,0.733,3.36,0.977,> 16
"SNU-449 (liver, adherent)",0.975,> 5,0.969,> 5.12,0.533,0.0155,0.544,4.17,0.233,0.618,0.888,> 20,0.431,0.0407,0.963,> 10.2,0.975,> 10.2,0.985,> 16
"ST486 (Burkitt lymphoma, suspension)",0.989,> 5,0.981,> 5.12,0.956,> 0.2,0.916,> 50,0.588,6.77,0.868,14.8,0.195,0.00914,0.937,> 10.2,0.328,0.226,0.986,> 16
"SU-DHL-4 (B-cell lymphoma, suspension)",0.997,> 5,0.997,> 5.12,0.997,> 0.2,0.995,> 50,0.79,20.4,0.916,14.3,0.451,0.0488,0.996,> 10.2,0.828,4.07,0.997,> 16
"SU-DHL-5 (B-cell lymphoma, suspension)",0.982,> 5,0.994,> 5.12,0.394,0.0069,0.442,2.26,0.365,1.88,0.885,12.7,0.196,0.0111,0.863,5.49,0.301,0.208,0.991,> 16
"SU-DHL-6 (B-cell lymphoma, suspension)",0.864,2.64,0.974,> 5.12,0.629,0.0257,0.772,14.7,0.29,1.23,0.905,14.4,0.146,0.00813,0.881,6.14,0.449,0.481,0.995,> 16
"SU-DHL-16 (B-cell lymphoma, suspension)",0.988,> 5,0.951,> 5.12,0.946,0.198,0.975,> 50,0.799,21.7,0.812,7.34,0.187,0.0108,0.738,2.43,0.518,0.709,0.981,> 16
"SUIT-2 (pancreas, adherent)",0.985,> 5,0.98,> 5.12,0.61,0.0254,0.76,18.5,0.322,1.24,0.928,> 20,0.526,0.0757,0.967,> 10.2,0.906,> 10.2,0.986,> 16
"SUP-HD1 (Hodgkin lymphoma, suspension)",0.979,> 5,0.988,> 5.12,0.983,> 0.2,0.357,1.28,0.434,2.67,0.888,> 20,0.381,0.0306,0.87,8.78,0.663,1.77,0.976,> 16
"SUP-M2 (anaplastic large cell lymphoma, suspension)",0.952,> 5,0.932,> 5.12,0.652,0.0295,0.076,0.21,0.323,1.46,0.882,12.8,0.542,0.0812,0.919,9.05,0.341,0.26,0.986,> 16
"SUP-T1 (T-cell lymphoblastic leukaemia, suspension)",0.984,> 5,0.984,> 5.12,0.977,> 0.2,0.815,24.4,0.043,< 0.25,0.863,14.8,0.281,0.0164,0.949,> 10.2,0.686,2,0.986,> 16
"SW13 (adrenal gland, adherent)",0.971,> 5,0.988,> 5.12,0.422,0.00763,0.283,0.751,0.087,< 0.25,0.979,> 20,0.464,0.0511,0.984,> 10.2,0.988,> 10.2,0.972,> 16
"SW756 (cervix, adherent)",0.983,> 5,0.969,> 5.12,0.369,0.00505,0.439,2.06,0.637,10.3,0.967,> 20,0.704,0.27,0.966,> 10.2,0.984,> 10.2,0.91,> 16
